Reference: PMC4336329 (PLoS ONE, 2015)
The whole screen tested about 310,000 compounds, of which about 2,200 (0.71%) showed an effect of 50% or more. The effect is printed as a negative number. This is one part of the list.

Target: human ether-à-go-go-related gene (hERG) potassium channel (human, UniProt Q12809)
Assay: primary screen, population patch clamp on CHO cells stably expressing hERG

Sequence of human ether-à-go-go-related gene (hERG) potassium channel (Q12809 whole entry, looked up): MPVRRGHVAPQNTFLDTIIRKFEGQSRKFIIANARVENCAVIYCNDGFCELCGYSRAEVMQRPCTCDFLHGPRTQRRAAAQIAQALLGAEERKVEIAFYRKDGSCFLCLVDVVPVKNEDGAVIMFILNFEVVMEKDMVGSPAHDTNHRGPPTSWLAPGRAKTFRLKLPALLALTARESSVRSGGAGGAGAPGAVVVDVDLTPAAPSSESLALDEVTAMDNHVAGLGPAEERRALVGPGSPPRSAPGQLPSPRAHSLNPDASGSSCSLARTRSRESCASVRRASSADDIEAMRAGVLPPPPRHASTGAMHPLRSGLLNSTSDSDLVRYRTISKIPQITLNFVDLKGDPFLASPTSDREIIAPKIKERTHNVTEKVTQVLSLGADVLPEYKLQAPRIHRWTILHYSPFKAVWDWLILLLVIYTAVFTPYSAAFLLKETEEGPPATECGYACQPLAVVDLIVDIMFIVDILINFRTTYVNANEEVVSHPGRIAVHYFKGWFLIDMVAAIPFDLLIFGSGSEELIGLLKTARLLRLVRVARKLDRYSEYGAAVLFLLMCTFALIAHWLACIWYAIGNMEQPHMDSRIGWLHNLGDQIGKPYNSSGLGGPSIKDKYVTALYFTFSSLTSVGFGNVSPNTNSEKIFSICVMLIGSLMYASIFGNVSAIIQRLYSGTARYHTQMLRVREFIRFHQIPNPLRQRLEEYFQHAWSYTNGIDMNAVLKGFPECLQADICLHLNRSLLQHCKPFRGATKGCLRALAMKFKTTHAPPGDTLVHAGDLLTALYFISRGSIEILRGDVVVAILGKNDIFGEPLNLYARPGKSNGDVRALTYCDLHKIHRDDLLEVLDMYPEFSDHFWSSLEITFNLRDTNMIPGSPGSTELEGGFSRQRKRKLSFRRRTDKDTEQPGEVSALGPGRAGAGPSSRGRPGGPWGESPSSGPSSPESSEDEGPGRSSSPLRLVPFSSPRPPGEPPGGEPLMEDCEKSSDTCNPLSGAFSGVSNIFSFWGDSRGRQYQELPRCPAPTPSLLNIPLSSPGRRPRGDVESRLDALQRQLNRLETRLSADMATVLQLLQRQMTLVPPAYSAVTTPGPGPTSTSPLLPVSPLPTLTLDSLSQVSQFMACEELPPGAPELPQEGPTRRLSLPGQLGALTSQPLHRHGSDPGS

SMILES | hERG current change (%, negative = inhibition) at 1uM
CNC(=S)N(CCc1ccc(S(N)(=O)=O)cc1)C1CC(=O)N(c2ccccc2F)C1=O (centres unmarked) | 4.26%
O=C(/C=C/c1ccc(S(=O)(=O)N2CCOCC2)cc1)NCc1ccccc1Cl | 5.91%
O=C(N/N=C/c1ccc(-c2ccccc2[N+](=O)[O-])o1)c1cccnc1 | -3.73%
CN(C)CCCC(=O)c1ccc2c(c1)OCO2.Cl | 11%
Cc1ccc(S(=O)(=O)N(CC(=O)Nc2ccccc2C(=O)O)c2ccccc2C)cc1 | 21.1%
CS(=O)(=O)N(CC(=O)Nc1ccc(F)cc1F)c1cccc([N+](=O)[O-])c1 | -7.02%
CC(C)(C)OC(=O)N/N=C/c1ccc(N2CCOCC2)s1 | 12.7%
O=C(NNC(=O)c1cc2cc(Br)ccc2oc1=O)c1ccc(O)cc1 | 4.44%
O=C(NCc1ccccc1CN1CCCC1)c1cccc(N2CCCC2=O)c1 | -0.539%
COc1cc(OC)cc(C(=O)NNC(=O)c2ccc(S(=O)(=O)N(C)c3ccccc3OC)cc2)c1 | 13.2%
Cc1ccccc1NC(=O)c1onc2c1CCCC2 | -1.91%
Cc1ccc(-c2nc3ccccc3c(=O)n2NC(=O)COc2ccccc2)cc1 | 9.19%
O=C(CN1CCCCCC1)Nc1ccc(F)c(F)c1.O=C(O)C(=O)O | -5.86%
Cc1[nH]nc2c1C(c1ccc(-c3ccc(Cl)cc3)o1)C(C#N)=C(N)O2 (centres unmarked) | 1.04%
Cc1ccccc1NC(=O)C1CCCN(S(=O)(=O)c2ccc(-n3cnnn3)cc2)C1 (centres unmarked) | -0.16%
O=[N+]([O-])c1cc(NCCO)c(N2CCCCCC2)c2nonc12 | 13.6%
Cc1ccc(S(=O)(=O)N2CCC(C(=O)N/N=C/c3cccnc3)CC2)cc1 | -24.3%
CSCCC(NC(=O)/C(=C/c1ccco1)NC(=O)c1ccco1)C(=O)O (centres unmarked) | 10.3%
O=C(N1CCOCC1)N1CCN(S(=O)(=O)c2ccccc2)C1 | -11.9%
Cc1cc(F)ccc1S(=O)(=O)NCC1CC2CCC1C2 (centres unmarked) | 7.09%
N#Cc1c(Cl)nc2c(c1C#N)CCCC2 | 7.6%
CSCC[C@H](NC(=O)CCCn1nnc2ccccc2c1=O)C(=O)O | 4.89%
O=C(CS(=O)(=O)c1c[nH]c2ccccc12)N1CCCCCC1 | 2.8%

SMILES | hERG current change (%, negative = inhibition) at 1uM
CC1CCCC(C)N1C(=O)COC(=O)CNC(=O)C12CC3CC(CC(C3)C1)C2 (centres unmarked) | 1.83%
CNC(=O)CSc1nnc(CCc2ccccc2)n1-c1ccccc1 | -5.9%
CC(=O)N(CCCN1CCOCC1)Cc1ccncc1.Cl | 17%
COC(=O)c1[nH]c2cc(OC)ccc2c1N=CN(C)C | 0.111%
O=C(c1cccs1)N1N=C(c2ccccc2)CC1c1ccccc1 (centres unmarked) | 9.97%
COc1cc(Nc2ccc(C(=O)O)cc2[N+](=O)[O-])cc(OC)c1 | -2.81%
COc1cc(NS(=O)(=O)c2cccc3nsnc23)cc(OC)c1 | 10.8%
CCCCN1C(=O)Nc2ccccc2S1=O (centres unmarked) | 9.1%
Oc1ccc2ccccc2c1C1Nc2cccc3cccc(c23)N1 | 7.9%
CN(CCC#N)C(=O)CSc1nnc(-c2ccco2)n1N | 8.84%
CC1CC(C)CN(CCCNC(=O)c2ccc3c(c2)NC(=O)CS3)C1 (centres unmarked) | 23%
CSc1ccccc1NC(=O)c1ccncc1 | -3.26%
CCOC(=O)C1=C(C)NC(=O)N(C(C)=O)C1c1ccc(Cl)cc1 (centres unmarked) | -6.25%
O=C(O)/C(=C\c1ccc2ccccc2c1)c1cccc2ccccc12 | 6.84%
O=C(CCS(=O)(=O)CCN1CCOCC1)NCNC(=O)CCS(=O)(=O)CCN1CCOCC1 | 12.2%
O=C(O)c1cc(S(=O)(=O)N2CCCCC2)sc1Cl | 9.79%
C=CCn1c(SCC(=O)NNC(=S)Nc2ccccc2)nnc1-c1ccccc1 | 11.1%
CCS(=O)(=O)N1Cc2ccccc2CC1C(=O)N(C)CC(=O)Nc1ccc(OC)cc1 (centres unmarked) | 9.92%
CCC(=O)Nc1ccc(NC(=O)c2cccc3ccccc23)cc1 | 16.4%
C/C=C/c1ccc(OCC(=O)OCC2=C(C(=O)OCC)C(C)NC(=O)N2)c(OC)c1 (centres unmarked) | 13.9%
COc1cccc(CN2CC(C(=O)NCC3CCOCC3)CCC2=O)c1 (centres unmarked) | 15.2%
O=C(CNC(=O)c1ccc(Cl)cc1Cl)OCc1nnc(-c2ccccc2)o1 | 10.4%
Cc1cc(N2CCN(C(=O)OC(C)(C)C)CC2)n2ncnc2n1 | -2.37%

SMILES | hERG current change (%, negative = inhibition) at 1uM
COc1ccc2c(c1)c(=O)c(C(=O)c1ccc(F)cc1)cn2CC(=O)Nc1ccc(F)cc1 | 6.3%
CC(C)CC(NC(=O)OC(C)(C)C)c1cn([C@@H](Cc2cc3ccccc3[nH]2)C(=O)N2CCN(C(=O)OC(C)(C)C)CC2)nn1 (some centres unmarked) | -0.731%
CC(O)CNCCCOc1ccccc1OCc1ccccc1.O=C(O)C(=O)O (centres unmarked) | -3.01%
O=C(CCCNC(=O)/C(=C\c1ccccc1F)NC(=O)c1ccccc1)OCc1ccccc1 | 4.55%
Cl.Cn1c(=O)c2c(ncn2CCNC2=NCCCCC2)n(C)c1=O | -2.04%
CCOc1ccc2nc3sc(C(=O)N4CCOCC4)c(N)c3cc2c1 | -0.713%
CCSc1nnc(COc2ccccc2)n1CC | 9.43%
CCOc1ccccc1NC(=O)NCc1ccccc1 | 1.71%
CC1(/[N+]([O-])=C/c2ccc(F)cc2)CCCCC1=O (centres unmarked) | 11.7%
CCOC(=O)c1c(C)[nH]c(C(=O)CN2CCN(CC)CC2)c1C.O=C(O)C(=O)O | 9.19%
CCn1c(CNC(=O)c2ccc(F)cc2)cc2ccccc21 | 9.6%
COc1ccc(OCc2nn[nH]n2)cc1 | 10.5%
COc1ccc(CN2C[C@H](C)[C@@H](CC(=O)NCc3ccccc3)C2=O)cc1 | 6.23%
Nc1nonc1-n1nnc(C(=O)N/N=C/c2ccc(Cl)cc2)c1-c1ccc2c(c1)OCO2 | 35.6%
Cc1ccc(NC(=O)C(NC2CCCc3ccccc32)c2ccccc2)cc1Cl.O=C(O)C(=O)O (centres unmarked) | 0.417%
Cc1ccc(OP(=O)(O)Oc2ccc(C)cc2)cc1 | 7.36%
Oc1ccc(-c2nnc(Nc3ccccc3)c3ccccc23)cc1 | -27.7%
COc1cc(CNc2ccc3[nH]c(=O)[nH]c3c2)ccc1OCc1ccccc1 | 11.9%
CN(C)CCN=Cc1c(O)n(-c2cccc3ccccc23)c(=O)[nH]c1=O | 1.85%
CC(C)C(C(=O)NCC1CCCO1)N(Cc1ccccc1)C(=O)CNS(=O)(=O)c1ccccc1 (centres unmarked) | 11.9%
COc1ccc(C2C(C(C)=O)=C(O)C(=O)N2c2nccs2)cc1 (centres unmarked) | -0.0288%
CCCCCCCCCn1cc(C(C)=O)c(=O)[nH]c1=O | 5.48%
Cc1ccc(C(C)C)c(OCC(=O)Nc2ccccc2N2CCN(C)CC2)c1 | 1.51%

SMILES | hERG current change (%, negative = inhibition) at 1uM
CCOc1cc(NC(=S)Nc2ccccc2)c(OCC)cc1NC(=O)c1ccccc1 | -1.81%
O=S(=O)(NCc1csc(-c2ccccc2)n1)c1ccc(Cl)s1 | 9.46%
CC(=O)Cc1ccc(OC(C)C)cc1 | 9.97%
Cc1ccc(-n2cc(CN3CCNC(=O)CC3)c(-c3cccc(C)c3)n2)cc1 | 14.7%
Cc1ccc(C(=O)O/N=C(\N)c2ccccn2)cc1C | 2.24%
COc1ccc2nc(Nc3nc4ccc(NC(C)=O)cc4s3)sc2c1 | 12.5%
O=S(=O)(NCc1ccccc1F)NCc1ccccc1F | -2.65%
CCN(CC(=O)Nc1c(F)cccc1F)C(=O)c1cccnc1SC | 5.46%
Cc1cc(=O)[nH]c(N/N=C/c2ccccc2C(F)(F)F)n1 | 12.7%
CCOc1ccc(N2C(=O)CC(N3CCN(c4ccc([N+](=O)[O-])cc4)CC3)C2=O)cc1 (centres unmarked) | -2.45%
COCCNC(=O)CCCn1c(=O)c2ccccc2n(Cc2ccccc2C#N)c1=O | 17.3%
CC(Oc1ccccc1)C(=O)N1CCc2ccccc2C1 (centres unmarked) | 10.8%
O=C(Nc1ccc(F)cc1F)c1sccc1SCc1cccc(C(F)(F)F)c1 | 0.0128%
CC1(C)Cc2c(C#N)c(N3CCN(C(=O)c4ccco4)CC3)nc(-c3ccco3)c2CS1 | 14.4%
COc1ccccc1CNC(=O)C(C)Oc1ccccc1 (centres unmarked) | -1.19%
CC(C(=O)NC(=O)NC1CCCCC1)N(C)CC(=O)Nc1ccc(F)c(F)c1F (centres unmarked) | 12.1%
Cc1c(NC(=O)CSC2=C(C#N)C(c3ccccc3F)CC(=O)N2)c(=O)n(-c2ccccc2)n1C (centres unmarked) | 12.7%
Cc1ccccc1C(=O)Nn1cnc2ccccc2c1=O | 23.3%
Cc1onc(-c2ccccc2)c1C(=O)NCC1CCCO1 (centres unmarked) | 16.8%
CC12CCC(C(=O)NCc3ccc(Cl)cc3)(OC1=O)C2(C)C (centres unmarked) | -1.52%
